# Measurements taken from the BET-seq Pho4 binding data (Le et al. 2018).
# This is one part of the list. Values were computed here from the reads of four pooled replicates and scatter widely.
# Target: T1, Pho4 (S. cerevisiae) (UniProt P07270)
# T1 sequence: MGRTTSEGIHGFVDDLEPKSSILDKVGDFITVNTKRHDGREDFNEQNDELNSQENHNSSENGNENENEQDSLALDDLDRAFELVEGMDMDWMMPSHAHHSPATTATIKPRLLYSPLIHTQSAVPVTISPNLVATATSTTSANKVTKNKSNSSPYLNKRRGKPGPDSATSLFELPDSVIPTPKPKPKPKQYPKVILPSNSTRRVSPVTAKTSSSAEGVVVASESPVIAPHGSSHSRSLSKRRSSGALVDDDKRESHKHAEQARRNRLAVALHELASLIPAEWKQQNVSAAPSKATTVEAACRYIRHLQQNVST
# Experiment: relative binding free energy (BET-seq); higher = weaker binding
# Settings: reference: library average
row,Sequence,relative binding free energy [kcal/mol]
1,TTTGTCACGTGCAAAT,0.04
2,TATGGCACGTGATAAG,-0.11
3,TGGTCCACGTGAAGGT,0.23
4,TTGGGCACGTGGGCTG,-0.18
5,CGAGTCACGTGGGGGG,-0.05
6,AGTTTCACGTGCTAAT,0.25
7,TGTGTCACGTGTCCGT,0.03
8,GGCTACACGTGTTGGG,0.33
9,CGGGCCACGTGAGGGG,0.03
10,TTCGGCACGTGCTGGA,-0.08
11,TGTTTCACGTGTGGCG,0.29
12,TTGGCCACGTGTCGGG,-0.18
13,ATGGGCACGTGGCCGT,-0.24
14,GATGTCACGTGGCGTG,0.11
15,CGCTTCACGTGGTGTG,0.16
16,TTTGGCACGTGGTTAC,-0.25
17,TTTATCACGTGGATAA,0.18
18,TGGTCCACGTGGGTTG,-0.16
19,ATTAGCACGTGGGGGC,-0.23
20,TGTGTCACGTGTTGGC,-0.05
21,CATAGCACGTGGGGCT,-0.19
22,CGGATCACGTGTGGAT,0.09
23,ATATACACGTGTGTAA,-0.09
24,GTTTTCACGTGGTAAG,0.27
25,GGAGGCACGTGTGGGA,0.04
26,TAGCGCACGTGGAGGT,-0.19

row,Sequence,relative binding free energy [kcal/mol]
1,CGTAACACGTGTAGGG,-0.19
2,GCGAACACGTGAGGGT,0.15
3,TGTGCCACGTGAGTGG,0.03
4,CTAGGCACGTGTATGG,-0.14
5,CTTGACACGTGGGCGG,-0.16
6,GGGCCCACGTGTGGGT,0.09
7,AGTTGCACGTGCTCGG,-0.05
8,TTTCACACGTGGGTGA,-0.01
9,TTGAGCACGTGTTCGT,-0.16
10,GCGTTCACGTGGGTGA,0.12
11,TTAAGCACGTGGGATA,-0.25
12,TGTTGCACGTGGGGGC,-0.18
13,AGTGTCACGTGCTCTT,0
14,GAGAGCACGTGGTTGC,-0.03
15,CGTAGCACGTGTGCGG,-0.12
16,GTAAGCACGTGATGGA,0.15
17,ATCGTCACGTGATTAG,0.22
18,GTTAACACGTGGGGCT,-0.02
19,TGTGGCACGTGACGAT,-0.13
20,TGATCCACGTGTTGGG,-0.03
21,GGTCTCACGTGGTCTT,0.22
22,TAGAGCACGTGGGCTG,-0.21
23,ATAGTCACGTGGAAGT,0.11
24,TGCAACACGTGGCGGT,-0.03
25,ATTTTCACGTGGCTGC,0.26
26,CGAGTCACGTGGATGG,0.06

row,Sequence,relative binding free energy [kcal/mol]
1,CAGGTCACGTGGTGAT,-0.02
2,TTAGGCACGTGGGCTG,-0.17
3,ATTAACACGTGTGTTA,-0.03
4,GCGGACACGTGAGGAG,0.5
5,TTTAACACGTGAATGG,0.22
6,TGGGTCACGTGCTACG,0.18
7,GATGTCACGTGGGGTG,-0.03
8,ATGGCCACGTGTTAGG,-0.19
9,ATATCCACGTGTAAGT,0.21
10,TACAGCACGTGGGTTG,-0.26
11,GGTGGCACGTGGCGCG,-0.24
12,TGGAGCACGTGGGGAG,-0.18
13,ATGGTCACGTGGACTG,0.15
14,AGGTGCACGTGTTCCT,0.02
15,GTGTTCACGTGCTTGC,0.2
16,AACTTCACGTGTGGGA,0.22
17,TTTATCACGTGAGAAT,0.19
18,TTTGTCACGTGTGCGT,0.16
19,AAGGCCACGTGTGGTA,-0.04
20,AGATGCACGTGGTATG,-0.2
21,AATGGCACGTGAGAGT,0.12
22,GGCGTCACGTGGCTGT,0.05
23,AGTGACACGTGGCATG,-0.07
24,GGCCGCACGTGTGGAG,0.12
25,TCGGCCACGTGTGGGC,0.03
26,AGGCTCACGTGGAATT,0.34

row,Sequence,relative binding free energy [kcal/mol]
1,GTTAGCACGTGTTTAT,0.13
2,TGGAACACGTGTCGTG,0.04
3,TTCGGCACGTGGTGTG,-0.2
4,TTTATCACGTGCTTGA,0.15
5,CTGTTCACGTGAGTCG,0.51
6,AGTGCCACGTGTCGTG,0.02
7,GATGGCACGTGTACTG,0
8,ATGAACACGTGGATGT,0
9,TGTGCCACGTGGAGGT,-0.1
10,CTCGGCACGTGGGGAG,-0.11
11,TCTGGCACGTGATTTA,-0.02
12,TTGCTCACGTGACGGG,0.3
13,AGAGGCACGTGAATGA,0.23
14,TGGTCCACGTGGGTAC,-0.08
15,TCTTGCACGTGTGATA,0.24
16,ATGCTCACGTGAAGTG,0.17
17,TGGCACACGTGTTTAT,0.03
18,GGTTGCACGTGCTCGT,0.11
19,GGCTGCACGTGCTGTT,-0.02
20,TATGGCACGTGTGAAT,0.06
21,TGGGACACGTGTTGAT,0.16
22,GGCCTCACGTGGAGGG,0.2
23,CGGTTCACGTGATTAA,0.4
24,GATAACACGTGAGTTG,0.24
25,CTATGCACGTGACGGG,0.02
26,TTTGTCACGTGAGTCG,0.26

row,Sequence,relative binding free energy [kcal/mol]
1,CGTGTCACGTGGTGGA,0.02
2,ATAGCCACGTGTGGTA,-0.05
3,TTATACACGTGATGGA,0.16
4,GTGGGCACGTGTCAGG,0.03
5,AGTAACACGTGTTGGA,0.02
6,AAATGCACGTGCAGGT,0.07
7,TTCAGCACGTGAGTAT,0.36
8,GTTTACACGTGGGGCG,0.02
9,TGGGCCACGTGGTAGT,-0.11
10,ACTTACACGTGTTTGG,0.08
11,GGGCACACGTGTTTGT,-0.05
12,GTAGTCACGTGGTGAG,0.06
13,GCGGACACGTGATGGT,0.13
14,GAGTACACGTGTCTGT,0.14
15,GTAATCACGTGTGTGT,0.17
16,AGGATCACGTGTTACG,0.24
17,TGATACACGTGCGTGT,-0.07
18,TTTGCCACGTGGGCGT,-0.32
19,TGTTTCACGTGGCGGA,0.16
20,AGGGACACGTGGGCGA,-0.17
21,ATTGGCACGTGGTATC,-0.07
22,GGTGGCACGTGTCGAA,-0.05
23,TGTCGCACGTGTGGAC,0.03
24,GCAGTCACGTGGAGGC,0.33
25,TTTAGCACGTGCTCGG,-0.16
26,GAGAGCACGTGATGTT,-0.07

row,Sequence,relative binding free energy [kcal/mol]
1,GGCGGCACGTGTCGTA,0.02
2,ACAGTCACGTGTTTTG,0.11
3,TTAGGCACGTGGGATT,-0.08
4,TATTTCACGTGGTGAT,0.3
5,AGTGTCACGTGTGGGG,0.06
6,CAGGTCACGTGTTAAT,0.19
7,TCAGACACGTGGGAGG,-0.07
8,TTTGGCACGTGCACGG,-0.14
9,CCTATCACGTGGGTGG,0.09
10,GTGGGCACGTGTCAAT,-0.09
11,AGATTCACGTGTTCGT,0.29
12,GAAGTCACGTGAAAGG,0.28
13,TATATCACGTGTAGCG,0.12
14,ATTTTCACGTGGGGTT,0.19
15,ATTAGCACGTGATTTG,0.19
16,ATGGGCACGTGGCGAA,-0.26
17,GTGTTCACGTGCTGTA,0.2
18,CGGAGCACGTGGGTGA,-0.15
19,TTGAGCACGTGTTGAA,0.01
20,GGTTACACGTGTTGCT,0.18
21,ATAATCACGTGGGGAT,-0.04
22,GTAGGCACGTGCGGTA,-0.04
23,ACTGGCACGTGGTGAG,-0.07
24,CTGGGCACGTGTCTGG,-0.18
25,TTAGTCACGTGTTAGG,0.17
26,GAGTACACGTGGCGGG,0.03

row,Sequence,relative binding free energy [kcal/mol]
1,AGGAACACGTGGAGGG,-0.02
2,AGGGTCACGTGTTTTC,0.1
3,TGTATCACGTGGGTTA,-0.11
4,GGAGTCACGTGAGTGA,0.46
5,TCGGGCACGTGTCGGA,-0.05
6,TCTATCACGTGGGTGT,0.09
7,GGTTGCACGTGTGACT,0.01
8,GATAACACGTGGGTTT,0.06
9,CTTGACACGTGGTTAT,0.01
10,ACGGTCACGTGGTGGT,0.09
11,CAGGTCACGTGGACGG,0.11
12,GCATGCACGTGTGAGG,0.1
13,CTTGTCACGTGTAGGA,0.07
14,GTTCTCACGTGGAGGT,0.13
15,TTGGCCACGTGGAAGG,-0.05
16,TCATTCACGTGGAAGG,0.29
17,GTTCACACGTGAGGAG,0.24
18,TATGGCACGTGTTCTT,-0.01
19,AAGGGCACGTGGCCGG,-0.16
20,TGGGTCACGTGATGGT,0.31
21,GTTGCCACGTGGGCTG,-0.25
22,TGGTGCACGTGGCATA,-0.15
23,TTTCACACGTGTGATT,0.11
24,ATGCGCACGTGGTGGA,-0.16
25,TGAGCCACGTGGTTAT,-0.08
26,GGCGACACGTGGGGGG,-0.05

row,Sequence,relative binding free energy [kcal/mol]
1,ACTATCACGTGGGTAG,0.06
2,TGGTACACGTGGCTTT,-0.02
3,AGGGTCACGTGCGTCG,-0.08
4,TGACACACGTGTGTTG,-0.07
5,GTGGTCACGTGGATGC,0.14
6,TCATACACGTGTTTGT,-0.1
7,CATGTCACGTGGCATG,0.06
8,AATTGCACGTGATGAT,0.04
9,GTTGGCACGTGATCTG,-0.08
10,ATGCACACGTGTTTTG,-0.02
11,GGGTGCACGTGCTAGC,0.03
12,GGATTCACGTGTCGAG,0.27
13,GATGCCACGTGTTGGT,0.09
14,AGCAGCACGTGGGGGC,-0.34
15,TGGCGCACGTGATTTA,0.05
16,ATGGTCACGTGTCGTT,-0.01
17,TATATCACGTGCGAGT,0.29
18,TGGGTCACGTGTGCTC,0.17
19,TTAGGCACGTGAACTT,0.04
20,CAGGTCACGTGGTAGG,0.02
21,TACTTCACGTGAGTTG,0.34
22,CGGGTCACGTGTGAGA,0.24
23,TGGAACACGTGGCAGT,0.02
24,GCTGTCACGTGTTGAA,0.24
25,GATTTCACGTGTCGTA,0.35
26,ATCTGCACGTGCGGTG,-0.06

row,Sequence,relative binding free energy [kcal/mol]
1,GTATACACGTGTTTTT,0.13
2,TAGCTCACGTGTAGCG,0.26
3,AATTGCACGTGGGATC,0.02
4,AAATGCACGTGCGGTG,-0.11
5,AGAATCACGTGTAAAG,0.3
6,AGGCTCACGTGGATGG,0.32
7,AGTCACACGTGGAGGG,0.11
8,GGTATCACGTGCCTGG,0.23
9,GTGTGCACGTGGTGAG,-0.04
10,ACTAACACGTGAGGTT,0.3
11,AGTGTCACGTGTCGGC,0.02
12,TTTGTCACGTGTAAAA,0.29
13,TGAATCACGTGGCGTG,0.05
14,AGAGACACGTGAGGTA,0.25
15,GAATGCACGTGAATTT,0.28
16,ATGGACACGTGGGTTT,-0.15
17,GTCGTCACGTGTAAGT,0.3
18,CATAGCACGTGGTTGG,-0.17
19,TAGGACACGTGTCGGA,0.11
20,TTTGACACGTGGAAGT,0.09
21,GTTTTCACGTGGCTGC,0.23
22,GCAGGCACGTGATTGG,0.07
